# Source: article PMC4336329 (PLoS ONE, 2015)
# Hit rate of the full screen: of about 310,000 compounds, about 2,200 (0.71%) showed an effect of 50% or more. Effects have a minus sign here. The list shows a part of the results.
# Target: human ether-à-go-go-related gene (hERG) potassium channel (human, UniProt Q12809)
# Assay: primary screen, population patch clamp on CHO cells stably expressing hERG
# Chain of human ether-à-go-go-related gene (hERG) potassium channel (Q12809 whole entry, looked up): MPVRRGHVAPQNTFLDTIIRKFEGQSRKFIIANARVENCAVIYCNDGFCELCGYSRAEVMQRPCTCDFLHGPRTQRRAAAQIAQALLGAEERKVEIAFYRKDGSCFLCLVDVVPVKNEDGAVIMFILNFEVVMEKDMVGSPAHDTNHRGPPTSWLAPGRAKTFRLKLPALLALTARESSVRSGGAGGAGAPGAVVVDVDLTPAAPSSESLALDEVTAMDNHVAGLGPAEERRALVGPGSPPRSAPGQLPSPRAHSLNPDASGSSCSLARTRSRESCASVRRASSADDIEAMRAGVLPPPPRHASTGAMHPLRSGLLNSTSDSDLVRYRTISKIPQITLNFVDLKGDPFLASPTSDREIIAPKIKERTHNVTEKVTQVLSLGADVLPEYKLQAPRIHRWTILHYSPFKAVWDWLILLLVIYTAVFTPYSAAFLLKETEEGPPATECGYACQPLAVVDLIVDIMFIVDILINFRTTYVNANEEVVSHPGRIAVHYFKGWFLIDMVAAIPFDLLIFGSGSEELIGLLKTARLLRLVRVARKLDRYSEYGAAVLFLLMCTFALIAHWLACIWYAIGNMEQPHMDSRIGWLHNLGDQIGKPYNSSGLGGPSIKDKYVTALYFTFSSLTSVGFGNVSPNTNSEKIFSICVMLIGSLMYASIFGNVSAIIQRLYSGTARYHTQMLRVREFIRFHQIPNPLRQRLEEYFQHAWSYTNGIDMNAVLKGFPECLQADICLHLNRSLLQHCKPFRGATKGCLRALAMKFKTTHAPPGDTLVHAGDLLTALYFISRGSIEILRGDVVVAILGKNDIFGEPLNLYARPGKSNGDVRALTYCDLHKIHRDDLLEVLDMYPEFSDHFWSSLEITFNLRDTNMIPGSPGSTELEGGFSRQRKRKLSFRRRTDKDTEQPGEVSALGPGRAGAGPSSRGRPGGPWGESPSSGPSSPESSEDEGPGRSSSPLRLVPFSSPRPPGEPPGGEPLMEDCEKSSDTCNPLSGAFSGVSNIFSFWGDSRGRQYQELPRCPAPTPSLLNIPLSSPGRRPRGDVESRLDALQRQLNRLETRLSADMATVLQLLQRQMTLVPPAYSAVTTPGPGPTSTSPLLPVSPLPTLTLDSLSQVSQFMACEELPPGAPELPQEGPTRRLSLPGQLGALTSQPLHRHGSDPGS
row,Structure (SMILES),"hERG current change (%, negative = inhibition) at 1uM"
1,O=C(NC(=S)Nc1ccc(N2CCOCC2)cc1)c1ccccc1,9.13%
2,O=C(Nc1cccc(C(=O)NC2CCCC2)c1)c1ccccc1,5.75%
3,COc1ccc(/C=N/NC(=O)c2ccc(Br)cc2)cc1Cn1cc(Cl)cn1,4.52%
4,COC(=O)c1c(N2C(=O)CC(Sc3ncccc3C(=O)O)C2=O)sc(C)c1C (centres unmarked),10.8%
5,O=C(N/N=C/C(Br)=C/c1ccccc1)c1n[nH]c2c1CCC2,4.82%
6,CCCCN(C)C1CCN(C(=S)Nc2ccc(OCC)cc2)CC1,-46.4%
7,CN(CC(=O)Nc1cccc(F)c1)C(=O)CCCc1nc2ccccc2c(=O)[nH]1,12.1%
8,Cc1cc2ncc(-c3ccc(Cl)cc3)cn2n1,13.1%
9,O=C(COC(=O)CNC(=O)C1CCCCC1)Nc1ccc2c(c1)OCCO2,1.25%
10,COc1ccc(N(C)C(=O)CC2(CC(=O)O)CCCCC2)cc1,-13.3%
11,CCOc1cc(/C=N/Nc2ccccc2Cl)ccc1OCC(=O)O,12.5%
12,CCOc1ccc(CCNC(=O)CCC(=O)N2CCSc3ccccc32)cc1OCC,5.11%
13,O=C(c1ccsc1)N1CCCC(Nc2ccc(F)c(F)c2)C1 (centres unmarked),7.42%
14,O=C(COC(=O)c1nc(Cl)ccc1Cl)Nc1ccc2c(c1)OCO2,11.7%
15,O=C(Nc1nnc(C2CC2)s1)c1cc(Cl)sc1Cl,16.1%
16,CCn1c(Oc2ccccc2F)nc2c1c(=O)n(C)c(=O)n2C,14.8%
17,Br.COc1ccc2c(c1)nc(SCC(=O)c1ccc(Br)s1)n2C,4.81%
18,Cc1ccc(Cl)cc1N1CCN(C(=O)C2CCN(S(=O)(=O)c3cccnc3)CC2)CC1,-1.41%
19,COc1cc2cc(Br)cc(Br)c2nc1C,-6.18%
20,COc1ccc2c(c1)[nH]c1c(=O)n(N)cnc12,8.29%
21,CC(=O)CSc1nnc2c3ccccc3nc(C(C)(C)C)n12,14.4%
22,COc1cccc(CNc2ccc3[nH]c(=O)[nH]c3c2)c1OCc1ccccc1Cl,24%

row,Structure (SMILES),"hERG current change (%, negative = inhibition) at 1uM"
1,COc1cc(NC(=O)COC(=O)Cn2cnc3c2c(=O)n(C)c(=O)n3C)cc(OC)c1,5.44%
2,N#Cc1ccc(NC(=O)N2CCC(c3nc4c(nnn4Cc4cccc(Cl)c4)c(=O)[nH]3)CC2)cc1,10.9%
3,Cc1cccc(C(=O)N2CCCC(CCC(=O)N3CCN(c4ccccn4)CC3)C2)c1 (centres unmarked),-25.8%
4,Cc1sc2ncnc(NCC3COc4ccccc4O3)c2c1C (centres unmarked),7.09%
5,Cc1ccc(CNC(=S)Nc2ccc(OC(F)F)cc2C)cc1,13.2%
6,CCOC(=O)c1ccc(N/C=C/C(=O)c2ccco2)cc1,13%
7,CC(C)CCN1CC(C(=O)NC(C)C)CC1=O (centres unmarked),6.91%
8,C=CCn1c(SCCC)nc2sc3c(c2c1=O)CCc1ccccc1-3,17.7%
9,Cn1nc(-c2ccc(Cl)cc2)c2cc(C(=O)N3CCOCC3)sc21,3.03%
10,CCCn1c(CCNc2nc(-c3ccc(OC)cc3)cs2)nc2ccccc21,2.97%
11,CCn1c(CNS(=O)(=O)c2ccc(Br)cc2)nnc1SC,1.7%
12,N#Cc1ccc(Nc2nc(-c3ccc(O)cc3O)cs2)cc1C(F)(F)F,9.17%
13,COC(=O)COc1ccc(NC(=O)Cn2nc(-c3ccccc3)c3ccccc3c2=O)cc1,7.66%
14,O=C1NC2(CCCCC2)C(=O)N1CCS(=O)(=O)Oc1ccccc1,7.16%
15,COc1cc(OC)cc(/C(N)=N/O)c1,12.3%
16,Cc1cc(C(=O)Nc2nnc(C3CC3)s2)c(C)s1,19.3%
17,COc1ccccc1C(=O)NCC(=O)OCC(=O)N(CC(C)C)c1c(N)n(Cc2ccccc2)c(=O)[nH]c1=O,1.5%
18,OC(COc1ccc(Cl)cc1)CN1CCN(c2ccccn2)CC1 (centres unmarked),-37.7%
19,Cc1ccc(N(CCC(=O)N2CCOCC2)S(=O)(=O)c2ccccc2)cc1,-1.88%
20,Cc1cccc(C(=O)N2c3ccccc3C(=O)OC2c2ccc3c(c2)OCO3)c1 (centres unmarked),9.06%
21,Br.Cc1ccccc1N=C/C=C1/C=C(c2ccccc2)OC(C)(C)O1,6.43%
22,O=C(CCN1CCCCCC1)Nc1ccc2c(c1)OCCO2.O=C(O)C(=O)O,-4.99%
